Experimental findings from patent US20140093592A1, “[…] THE TREATMENT OF TREATMENT-[…] TREATMENT-RESISTANT DEPRESSION” (Janssen Pharmaceutica NV, priority 2012, published 2014) are described below.

The subject of data set [1] is adult subjects with treatment-resistant depression (TRD). Briefly: Treatment Emergent Adverse Events (TEAEs), same clinical study.
Data set [2] shares this test system. As to the kind of experiment: Phase 2a clinical study of i.v. esketamine in TRD: MADRS total score. To be noted: both doses IV; study duration.

SMILES strings stand for the structures.

Consider `CN[C@]1(c2ccccc2Cl)CCCCC1=O.Cl` [Esketamine, (S)-2-(2-chlorophenyl)-2-(methylamino)cyclohexanone hydrochloride], for which, in data set [1] (0.2 mg/kg), the “TEAE dissociation, patients” value was 8.3%; the “TEAE headache, patients” value came out at 16.7%; the “TEAE nausea, patients” value came to 25%. In data set [1] (0.4 mg/kg), the “TEAE dissociation, patients” value is listed as 16.7%; the “TEAE headache, patients” value was 23.3%; the “TEAE nausea, patients” value is given as 10%. Moreover, the “Tolerability (in words)” value in data set [1] (both doses of IV esketamine) is reported as “generally well-tolerated”. Also, the “Duration over which the response was maintained” value in data set [2] amounted to 35 days.
